Measurements: article PMC7819943, “Rice protein-binding microarrays: a tool to detect cis-acting elements near promoter regions in rice”
This is one part of the list.

Molecular target: T1, OsWOX13 (Oryza sativa, UniProt Q5QMM3 1-267)
T1 sequence: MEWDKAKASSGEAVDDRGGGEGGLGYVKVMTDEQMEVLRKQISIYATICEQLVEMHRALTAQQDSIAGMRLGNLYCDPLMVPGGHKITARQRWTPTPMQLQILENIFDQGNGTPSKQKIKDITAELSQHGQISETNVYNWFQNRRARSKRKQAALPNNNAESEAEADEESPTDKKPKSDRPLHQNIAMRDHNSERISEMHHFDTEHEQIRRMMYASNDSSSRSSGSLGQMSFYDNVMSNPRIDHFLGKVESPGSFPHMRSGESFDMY
Assay: protein-binding microarray (RPBM); PBS, 2% BSA, 51.3 ng/ul salmon testes DNA, 50 uM zinc acetate, 200 nM TF, 25 C, 1 h; high values mean tight binding
Conditions: protein: recombinant; tags: N-terminal polyhistidine and DsRed monomer fusion (pET32a); label: CyDye5-dUTP incorporated in the synthesized complementary strand; 3' TTTTT single-stranded linker to array surface; dsDNA, one strand shown
Outline: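 Transcription factors, each fused N-terminally to a polyhistidine tag and DsRed, were expressed in E. coli BL21-CodonPlus and purified on Ni–NTA. A custom Agilent array was made double-stranded by primer extension with Cy5-dUTP and blocked with 2% BSA. It was incubated with 200 nM protein in PBS, 2% BSA, salmon testes DNA and 50 µM zinc acetate at 25 °C for 1 h, then washed. The binding signal is per-feature fluorescence intensity (arbitrary units) read on an Axon 4000B scanner.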

| Sequence | binding signal |
| --- | --- |
| ATCTGTTATTATCAGTTTAATATCTGATATGTGGGCCATACGGAGTCACCTAGTGCAG | 5820 fluorescence intensity (a.u.) |
| AAAACCACAAATGATTAATAATTGCAAACACATTATTATTCGGAGTCACCTAGTGCAG | 13800 fluorescence intensity (a.u.) |
| CTCAACAGAGATTTTAACAAAATCATATATCAAAATCTGGCGGAGTCACCTAGTGCAG | 3240 fluorescence intensity (a.u.) |
| ACTTGTGTGATGTTTGGATTGATGCCAAAACTTGCCAAATCGGAGTCACCTAGTGCAG | 3930 fluorescence intensity (a.u.) |
| TATAATTTATTTTATCATTGAAGTACTTTAAACATGTTTTCGGAGTCACCTAGTGCAG | 18900 fluorescence intensity (a.u.) |
| GATTGATGGCAGTTTTGTGGCGTACACCAGGCTCATGGACCGGAGTCACCTAGTGCAG | 3810 fluorescence intensity (a.u.) |
| TTCTAAATAGAATGGCACTCGGAAATACTTAAATGTTTAACGGAGTCACCTAGTGCAG | 4670 fluorescence intensity (a.u.) |
| TTAACTAAATCATATAACAATAATGAGATTAAAATAGACTCGGAGTCACCTAGTGCAG | 8500 fluorescence intensity (a.u.) |
| GTAATTTGTGGAATTATGATAGTAGTTTTCGATGTATACCCGGAGTCACCTAGTGCAG | 5700 fluorescence intensity (a.u.) |
| ATTTGCAAATTGAGTTTCTTGTGTTCATCTTGTTCTTGCTCGGAGTCACCTAGTGCAG | 5850 fluorescence intensity (a.u.) |
| TTACCAAACTGGAAATTTCGTGGTGTTACAAAATAGGACACGGAGTCACCTAGTGCAG | 3600 fluorescence intensity (a.u.) |
| TATAAACAATTCATTAACCATCAATCTTCAATTCTGAATCCGGAGTCACCTAGTGCAG | 8980 fluorescence intensity (a.u.) |
| CCAATTCTTCTGATAAATTGGTTGCTCTCAAGGCCTATCGCGGAGTCACCTAGTGCAG | 4480 fluorescence intensity (a.u.) |
| ACCCGATTTTGTGATTAATGGATGAAAATTAGAGAGAGACCGGAGTCACCTAGTGCAG | 18800 fluorescence intensity (a.u.) |
| ACCAAAATTGAAATTTTGATTAAAATTAAAACAATGTGACCGGAGTCACCTAGTGCAG | 27400 fluorescence intensity (a.u.) |
| CAGAGTGTATTTGATTTGTGATCATCCTTTATGTGTATCACGGAGTCACCTAGTGCAG | 4440 fluorescence intensity (a.u.) |
| TAAGATTAGTGAAAGAATTAGAACCTATGTTACATAGTTCCGGAGTCACCTAGTGCAG | 3590 fluorescence intensity (a.u.) |
| TTGATTAGCTTGTTCATGTGACTGCGACAAAGATGTTTCGCGGAGTCACCTAGTGCAG | 35700 fluorescence intensity (a.u.) |
| CACGCCGCTGATCAATCAGCCGCTCGTGTTAGCACGGGCCCGGAGTCACCTAGTGCAG | 4040 fluorescence intensity (a.u.) |
| AATACTAAATTAGTTTTATTAAATTTAACATTAAATATATCGGAGTCACCTAGTGCAG | 4010 fluorescence intensity (a.u.) |
| AGTTGATGTGTCTGTTAAGAGCGATGTGCACATGGATTTTCGGAGTCACCTAGTGCAG | 5630 fluorescence intensity (a.u.) |
| ACTACTAACTCCAAATCATTTATAACCAATGTAATAGTCACGGAGTCACCTAGTGCAG | 4370 fluorescence intensity (a.u.) |
| ACAACTAAATTGCTCATAAGATCGCTTAGAAACGAACTCGCGGAGTCACCTAGTGCAG | 5340 fluorescence intensity (a.u.) |
| TAACACCCCTAATTATTTCTATACAGTTAACGTTACTACGCGGAGTCACCTAGTGCAG | 5550 fluorescence intensity (a.u.) |
| ATTTGAATAATTAGGGAGTCTATGAACAGAAACATAGACCCGGAGTCACCTAGTGCAG | 6000 fluorescence intensity (a.u.) |
| ATGATTGATTTGGGTAACATACCAAACACCAAACAGTTCACGGAGTCACCTAGTGCAG | 56600 fluorescence intensity (a.u.) |
| TCTTGTTAGATTGGCTGATACCCCAGGCATCAAAAGAGGACGGAGTCACCTAGTGCAG | 18500 fluorescence intensity (a.u.) |

| Sequence | binding signal |
| --- | --- |
| CAATAAAATTAGGGTAATATGTTCATTTGTTAGAGAAGGGCGGAGTCACCTAGTGCAG | 5340 fluorescence intensity (a.u.) |
| ACATTAAATAACTTATATAACATATTTGCATATAAACAGTCGGAGTCACCTAGTGCAG | 4200 fluorescence intensity (a.u.) |
| GTTGACGGTGATGATGACGATGATGATGAAGATGAGGACGCGGAGTCACCTAGTGCAG | 18200 fluorescence intensity (a.u.) |
| TCAGAAACAGTAATTAAACATGCATAATACTATTTACTACCGGAGTCACCTAGTGCAG | 6300 fluorescence intensity (a.u.) |
| TTAGATTGTCATTGGGCACCGGGCCGTAGCACATTGATAACGGAGTCACCTAGTGCAG | 7590 fluorescence intensity (a.u.) |
| CTCTCTCTCTCACTAGCTAATTAGCTGCTACTACATCTTCCGGAGTCACCTAGTGCAG | 8290 fluorescence intensity (a.u.) |
| ACGCTGTAAATTACTCGTACTTATATATTAATAAAAGTTTCGGAGTCACCTAGTGCAG | 3290 fluorescence intensity (a.u.) |
| TATGAATGAGCTATTAGATTGGCTATAGGAGCAGGTACAACGGAGTCACCTAGTGCAG | 11300 fluorescence intensity (a.u.) |
| TGGTGACTTTGTCAATCTTCAGGATTTACCGGCTCAGTCTCGGAGTCACCTAGTGCAG | 9900 fluorescence intensity (a.u.) |
| TACACCTTTGACAGACAACAAAGCATTGAATCTTCTATGCCGGAGTCACCTAGTGCAG | 5260 fluorescence intensity (a.u.) |
| TATATATATATATATATATATATATATTATGTATATATGTCGGAGTCACCTAGTGCAG | 10100 fluorescence intensity (a.u.) |
| AGTATGAATCGATTTTGACAGGAACCGACGTCGTTAGCAGCGGAGTCACCTAGTGCAG | 3550 fluorescence intensity (a.u.) |
| GATGATTGGGAGTGCGTTAGTTGCAGATGATTGGGTCAGCCGGAGTCACCTAGTGCAG | 32700 fluorescence intensity (a.u.) |
| ATCTAGAATTAGATGTGACATATCGTAGTACTATGAACCTCGGAGTCACCTAGTGCAG | 4830 fluorescence intensity (a.u.) |
| GCAAATAATTTAGAAATATTTTAAACAAAACTCGAATAAACGGAGTCACCTAGTGCAG | 5840 fluorescence intensity (a.u.) |
| CTGATAATGGACATTTCTTAATTCGAACAATAATGATATCCGGAGTCACCTAGTGCAG | 14500 fluorescence intensity (a.u.) |
| AAAATGGGATTTACGTAAATAAATTATATACAACAGGGGCCGGAGTCACCTAGTGCAG | 8370 fluorescence intensity (a.u.) |
| GTGGATAGATTTTATAATCAAGGATTATGAACAACTGAATCGGAGTCACCTAGTGCAG | 18100 fluorescence intensity (a.u.) |
| TCAACTGATTTTCTTTCTTTTACAATCAACTGATTTTCTTCGGAGTCACCTAGTGCAG | 10100 fluorescence intensity (a.u.) |
| TTTAAACTGTTATTTGCATGTTACTCAAATAGTTATGAAACGGAGTCACCTAGTGCAG | 5480 fluorescence intensity (a.u.) |
| AAAATAATTTTATTCGGGAATGGAGAGAGTACTCGCGATCCGGAGTCACCTAGTGCAG | 5060 fluorescence intensity (a.u.) |
| ATTATTCCATCAATTAATTCACCAGACCGCATTCTCTTTTCGGAGTCACCTAGTGCAG | 14500 fluorescence intensity (a.u.) |
| ACTAATTTTGTGATAACTATTCGAGGCTACAAACGAAAGACGGAGTCACCTAGTGCAG | 14100 fluorescence intensity (a.u.) |
| TTAGTATTAACAAGGGTGATTGTAGATCAACATAAAGGTTCGGAGTCACCTAGTGCAG | 3480 fluorescence intensity (a.u.) |
| AGAGATGGGTGAAGGGATTGACTGACATGTGGGCCCCACCCGGAGTCACCTAGTGCAG | 6660 fluorescence intensity (a.u.) |
| ATCCATCCAATCAATCTCCAGTAGTATTGTACTAATCTCTCGGAGTCACCTAGTGCAG | 20100 fluorescence intensity (a.u.) |
| GTATTGTCAATTACCTTGTTGGTGCTGCTGGATTCTGTACCGGAGTCACCTAGTGCAG | 12100 fluorescence intensity (a.u.) |
